# Source: article PMC4336329 (PLoS ONE, 2015)
# Screen size: about 310,000 compounds; about 2,200 (0.71%) showed an effect of 50% or more. Effects have a minus sign here. The list shows a part of the results.
# Biological target: human ether-à-go-go-related gene (hERG) potassium channel (human, UniProt Q12809)
# Test: primary screen, population patch clamp on CHO cells stably expressing hERG
# Chain of human ether-à-go-go-related gene (hERG) potassium channel (Q12809 whole entry, looked up): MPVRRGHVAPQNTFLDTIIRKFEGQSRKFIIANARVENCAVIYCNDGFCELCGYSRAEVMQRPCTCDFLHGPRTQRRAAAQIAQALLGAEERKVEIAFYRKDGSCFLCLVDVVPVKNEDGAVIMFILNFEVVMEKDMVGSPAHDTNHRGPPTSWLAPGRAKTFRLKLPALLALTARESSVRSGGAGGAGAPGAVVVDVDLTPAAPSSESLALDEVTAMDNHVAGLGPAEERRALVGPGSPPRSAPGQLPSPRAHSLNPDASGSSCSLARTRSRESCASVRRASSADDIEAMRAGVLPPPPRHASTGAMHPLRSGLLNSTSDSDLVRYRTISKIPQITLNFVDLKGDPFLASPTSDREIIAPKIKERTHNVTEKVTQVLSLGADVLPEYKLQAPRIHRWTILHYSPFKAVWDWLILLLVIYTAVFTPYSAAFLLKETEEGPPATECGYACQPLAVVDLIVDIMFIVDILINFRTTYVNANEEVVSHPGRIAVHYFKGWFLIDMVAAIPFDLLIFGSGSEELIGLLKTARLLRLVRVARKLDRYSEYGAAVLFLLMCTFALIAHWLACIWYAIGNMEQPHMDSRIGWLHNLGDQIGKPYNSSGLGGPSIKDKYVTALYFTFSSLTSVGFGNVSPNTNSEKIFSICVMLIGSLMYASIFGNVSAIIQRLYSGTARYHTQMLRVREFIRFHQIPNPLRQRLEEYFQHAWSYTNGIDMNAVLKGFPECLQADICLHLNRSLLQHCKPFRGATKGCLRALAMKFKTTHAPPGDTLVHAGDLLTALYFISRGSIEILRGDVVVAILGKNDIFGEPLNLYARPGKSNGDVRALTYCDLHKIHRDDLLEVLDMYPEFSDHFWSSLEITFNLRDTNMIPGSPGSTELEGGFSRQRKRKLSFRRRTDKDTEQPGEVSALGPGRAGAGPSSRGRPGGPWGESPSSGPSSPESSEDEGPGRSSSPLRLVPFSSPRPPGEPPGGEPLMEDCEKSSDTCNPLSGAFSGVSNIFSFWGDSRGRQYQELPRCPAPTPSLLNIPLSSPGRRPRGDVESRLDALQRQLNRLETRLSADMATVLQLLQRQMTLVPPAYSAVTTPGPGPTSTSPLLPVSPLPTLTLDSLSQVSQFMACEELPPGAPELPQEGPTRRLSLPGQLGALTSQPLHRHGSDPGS
row,Structure (SMILES),"hERG current change (%, negative = inhibition) at 1uM"
1,COc1ccccc1NC(=O)Nc1nc(CC(=O)NCc2ccccn2)cs1,4.12%
2,CC1(C)CC(NC(=S)Nc2ccc([N+](=O)[O-])cc2)CC(C)(C)N1,8.78%
3,COc1ccc(NC(=O)CN(C)C(=O)c2oc3c(ccc4ccccc43)c2C)cc1,0.811%
4,CC(C)(C)S(=O)(=O)c1cnc(-c2ccccn2)nc1N,9.74%
5,CCC(=O)c1ccc(OCC(=O)OCC(=O)N(C)CC(=O)Nc2ccc(F)cc2)cc1,6.46%
6,CC(=O)OCC1OC(Sc2cccc3cccnc23)C(OC(C)=O)C(OC(C)=O)C1OC(C)=O (stereo not drawn),-2.95%
7,O=[N+]([O-])c1ccc(N2CCNCC2)cc1N1CCCCC1,8.99%
8,COc1cc(NS(=O)(=O)c2ccc(Br)cc2)c(OC)cc1NC(=O)c1ccco1,-2.36%
9,N#C[C@]1(S(=O)(=O)c2ccccc2)C[C@@H]2ON=C(c3cccc(Br)c3)[C@@H]2C1,11.3%
10,CN1CCc2c(sc3nc(SCC(=O)NCc4ccco4)n(-c4ccccc4)c(=O)c23)C1,14.7%
11,CC1CCC2(CC1)NC(=O)N(CC(=O)Nc1nc(-c3ccc(F)cc3)cs1)C2=O (stereo not drawn),17.9%
12,Cc1csc(NC(=O)c2c(-c3c(Cl)cccc3Cl)noc2C)n1,7.98%
13,O=C(NCCc1cnn(-c2ccccc2)c1)c1cc(COc2c(F)cccc2F)on1,2.71%
14,O=C(CSc1nnc2c(n1)[nH]c1ccc(S(=O)(=O)N3CCOCC3)cc12)Nc1ccccc1Cl,13%
15,Cc1ccc(S(=O)(=O)NC(=O)CSc2nc3ccccc3s2)cc1,2.07%
16,CCOc1ccc(-c2nc(C)c(C(C)=O)n2O)cc1,-0.9%
17,O=C(NCCC1=CCCCC1)C(=O)NCC(c1ccco1)N1CCN(c2ccccc2F)CC1 (stereo not drawn),2.06%
18,COc1ccccc1CNC(=O)c1cc(S(=O)(=O)N2CCCC2)cn1C,2.2%
19,Cc1cc2cc(CCNC(=O)C(C)C)c(=O)[nH]c2cc1C,8.91%
20,CC(NC(=O)C(=O)NCCc1c[nH]c2ccccc12)c1ccccc1 (stereo not drawn),12.1%
21,Cc1ccc(C(=O)COC(=O)c2n[nH]c(=O)c3ccccc23)cc1,9.61%

row,Structure (SMILES),"hERG current change (%, negative = inhibition) at 1uM"
1,Cc1cc(C)nc(NC(=S)Nc2ccc(F)cc2F)c1,10.3%
2,C=CCn1c(CCC(=O)O)ccc1-c1ccc(OC)cc1,18.3%
3,Cc1cccc(OC(=O)Cn2c(C(F)(F)F)nc3ccccc32)c1,12.1%
4,CC/C(=N\NC(=O)Nc1nonc1N)c1ccc(OC)c(OC)c1,13.8%
5,Cc1c(C(=O)N/N=C/C(C)C)[nH]c2ccc([N+](=O)[O-])cc12,0.619%
6,CCN(Cc1ccccc1)C(=O)c1cc2cc(OC)c(OC)cc2[nH]1,13.3%
7,O=C(O)CSc1c2c(nc3cc(C(=O)N4CCCC4)ccc13)CCCC2,2.12%
8,Cc1ccc(S(=O)(=O)N2[C@@H](c3ccccc3F)C(C(=O)O)=CC[C@H]2c2cccc(C)c2)cc1,9.22%
9,CCN(CC)S(=O)(=O)c1cc(NC(=O)COC(=O)c2sc3ccccc3c2Cl)ccc1C,9.06%
10,Cc1ccc(C(=O)CN(CCCC(N)=O)S(=O)(=O)c2ccc([N+](=O)[O-])cc2)cc1,-34%
11,COC(=O)c1ccccc1NC(=O)Cn1c(=O)n(Cc2ccccc2)c(=O)c2c(C)c(C)sc21,6.63%
12,CC12CC3CC(C)(C1)CC(C(O)CN1CCOCC1)(C3)C2.Cl (stereo not drawn),14.9%
13,CN(C)CCn1c(C(=O)O)cc2ccccc21.Cl,11.7%
14,CN1/C(=C/C(=S)NC(=O)C2CCC2)C(C)(C)c2ccccc21,9.57%
15,Cc1ccc(Nc2nc(C(=O)NCCCN3CCOCC3)cs2)cc1,-11.9%
16,O=C(NC1CCCc2c1cnn2-c1ccc(F)cc1F)c1csnn1 (stereo not drawn),12.5%
17,CC(NC(=O)/C=C/c1ccc(Br)cc1)c1ccc(Cl)cc1 (stereo not drawn),5.45%
18,CCCCn1nnnc1SCC(=O)c1cc(Cl)ccc1OC,-1.89%
19,Cc1ccc(S(=O)(=O)CC(O)COc2ccc(F)cc2Cl)c(C)c1 (stereo not drawn),7.06%
20,CCCCSc1nc2sc3c(c2c(=O)[nH]1)CC(C)(CC)OC3 (stereo not drawn),19.7%
21,CCCCNc1ccc(S(N)(=O)=O)cc1[N+](=O)[O-],9.61%

row,Structure (SMILES),"hERG current change (%, negative = inhibition) at 1uM"
1,Cc1cccc(OCC(=O)O/N=C(\N)c2ccccn2)c1C,3.96%
2,Cc1ccc(SCC(=O)Nc2ccc3c(c2)C(=O)NC3=O)cc1,11.8%
3,CC/C(=N\Nc1ccc([N+](=O)[O-])cc1[N+](=O)[O-])c1ccc(O)cc1,20.6%
4,Cn1cc(C(=O)c2ccc(Cl)cc2Cl)cc1C(=O)N/N=C(\N)COc1ccc(F)cc1,9.81%
5,COc1ccc(-c2nc(-c3ccc4c(c3)OCO4)[nH]c2-c2ccc(OC)cc2)cc1,14.7%
6,CCCN1C(=O)c2cc(C(=O)Nc3cccc(C(C)=O)c3)ccc2C1Nc1cccc(C(C)=O)c1 (stereo not drawn),7.41%
7,c1ccc(CCNc2ncnc3sccc23)nc1,21.7%
8,O=C(O)c1ccc(/C=C/c2nc3ccccc3c(=O)[nH]2)cc1,15.1%
9,COc1ccc(NC(=S)NC(NC(=O)c2ccccc2Cl)C(Cl)(Cl)Cl)c([N+](=O)[O-])c1 (stereo not drawn),12.5%
10,CC(=O)c1c(C)[nH]c(C(=O)Nc2nc(-c3ccc(Cl)cc3)cs2)c1C,17.1%
11,Cc1ccccc1-c1cc(C(=O)NCC2CC2)nn1CC1CC(c2cccc([N+](=O)[O-])c2)=NO1 (stereo not drawn),11.8%
12,Nn1cnnc1N/N=C/c1cc([N+](=O)[O-])c(Cl)cc1Cl,-3.12%
13,Cc1cccnc1NC(=O)c1ccc(C(=O)c2ccccc2)cc1,6.21%
14,CCOc1cc(CNc2ccccc2)cc(Br)c1OCC(=O)NC(C)(C)C,14%
15,O=C(CN1CCCCCC1)N/N=C/c1ccc2ccccc2c1,-10.5%
16,CCCCc1ccc(NC(=S)N2CCCC2)cc1,11.3%
17,O=C(NCc1ccco1)/C(=C/c1cccc([N+](=O)[O-])c1)NC(=O)c1ccco1,-15.4%
18,COc1ccc(C(C)=O)c(Oc2cc(NN3CCCCC3)c([N+](=O)[O-])cc2[N+](=O)[O-])c1,12.7%
19,COc1ccc(S(=O)(=O)N2CCCOC2CNC(=O)C(=O)NCc2ccco2)cc1C (stereo not drawn),3.62%
20,COc1ccc(NC(C)=O)cc1NC(C)C(=O)Nc1ccc(F)c(F)c1F (stereo not drawn),-0.302%
21,COc1ccccc1NC(=O)c1ccccc1S(=O)(=O)c1ccccc1[N+](=O)[O-],17.4%

row,Structure (SMILES),"hERG current change (%, negative = inhibition) at 1uM"
1,CCCN(CCC)C(=O)Cn1c(=O)n(CCC(=O)NCCc2ccccc2)c(=O)c2ccccc21,-7.65%
2,Cc1cc(C)n(-c2n[nH]c(C)c2[N+](=O)[O-])n1,3.56%
3,Cc1ccc(OCC(=O)NCCc2c[nH]c3ccccc23)cc1,9.53%
4,O=C(Nc1ccc(N2CCOCC2)cc1)c1ccccc1SCC(=O)N1CCCC1,10.9%
5,O=S(=O)(c1ccccc1)N1CCN(C2CCCCCCC2)CC1,-7.17%
6,COc1ccc(OC)c(NC(=O)CSc2nnnn2-c2ccc3c(c2)OCO3)c1,-1.68%
7,O=C(NCC1COc2ccccc2O1)c1ccc(NC(=O)c2ccco2)cc1 (stereo not drawn),-1.42%
8,Cc1ccc(-c2nn(-c3ccccc3)cc2C(=O)N2CCOCC2)cc1,9.79%
9,Cc1cc(C)c(NC(=S)NC(=O)c2ccc(-c3ccccc3)cc2)c(C)c1,15.3%
10,Cn1c(-[n+]2c(-c3ccccc3)cc(-c3ccccc3)cc2-c2ccccc2)nc2c([N+](=O)[O-])cccc21.[I-],-6.1%
11,O=C(/C=C/c1cccc([N+](=O)[O-])c1)Nc1cccc(NC(=O)c2ccco2)c1,6.17%
12,COc1cc(C(=O)n2nc(C)cc2C)cc(OC)c1OC,16.5%
13,COc1ccc(-n2nnnc2SCC(=O)NC2CCCC2)cc1OC,15.2%
14,CCCC(=O)Nc1c(C(=O)OCC)oc2ccccc12,10.2%
15,CCN(CCCNC(=O)CC(C(=O)N1CCc2ccccc21)n1ccnc1)c1cccc(C)c1 (stereo not drawn),-37.4%
16,CCN(c1ccccc1)S(=O)(=O)c1ccc(OC)c(NS(=O)(=O)c2cccs2)c1,10.2%
17,CC(C)(C)CC(C)(C)NC(=O)CSCC(=O)Nc1ccc2ccccc2c1,1.88%
18,COC(=O)c1ccc(S(=O)(=O)N2CCCCCC2)n1C,15.3%
19,Cc1ccc2c(CC(=O)NNC(=O)c3ccncc3)coc2c1,7.99%
20,COc1ccc(S(=O)(=O)N2CCOC2CNC(=O)C(=O)NCCc2ccccc2OC)cc1 (stereo not drawn),9.54%
21,CCCCn1c(SCC(=O)N(CC)C2CCS(=O)(=O)C2)nnc1C(CC)N(C)C (stereo not drawn),11.7%
